In PubChem BioAssay AID1466 (National Center for Advancing Translational Sciences (NCATS), 2008):
Screen size: about 200,000 compounds; about 10 (0.005%) were called active. Inconclusive means that the source gave no clear call. Such entries were picked first, then a sample of the others. The call rests on the fitted dose curve; in most records, active means well fitted inhibition curve with a large enough effect; inconclusive means small, poorly fitted or top-dose-only effect, or effect the other way, or another doubt; inactive means no such curve, though single readings can be large or run the other way. No potency is given beside an inconclusive call; the fits are too rough.

These molecules were tested against Lysosomal alpha-glucosidase (Homo sapiens) (UniProt P10253) (assay: qHTS Assay for Inhibitors of Human alpha-Glucosidase as a Potential Chaperone Treatment of Pompe Disease). Conditions: purified human GAA, 4-MU-alpha-glucoside fluorescence; activity change, negative = inhibition: at 76.9 µM (top of the series) unless noted.
Procedure, shortened: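 Activity normalized between no-enzyme (basal) and enzyme-only wells. Conditions: 4 nM human enzyme, 400 uM fluorogenic substrate, citrate/phosphate pH 5.0 with Tween-20, 20 min room temperature, compounds up to 77 uM.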
Potency means the concentration at half of the fitted maximal effect; tags describe the fitted curve by direction and shape.
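Wherever activity change, negative = inhibition is given: plate controls were uninhibited enzyme wells for no effect and no-enzyme background for full effect.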

SMILES | Potency | activity change, negative = inhibition
O=C(OCC(F)(F)F)c1cccc(COc2ccc3ccccc3c2)c1 | inconclusive [inhibitor, partial curve] | 
CC12CN(Cc3ccccc3)CC(C)(CN(Cc3ccccc3)C1)C2=O | inconclusive [inhibitor, single point] | 
COC(c1ccccc1)c1nnc(CCC(=O)NCc2cccc(-n3cccn3)c2)o1 (stereo unspecified) |  | inconclusive: 0.267% [activator]
Cc1cc(C)cc(C(=O)NC(=S)Nc2ccc(Cc3ccncc3)cc2)c1 | inconclusive [inhibitor, partial curve] | 
Cc1ccc([N+](=O)[O-])cc1N=Nc1c(-c2ccc([N+](=O)[O-])cc2)[nH]n(C(N)=S)c1=O | inactive | 
Cn1cnnc1-c1cccc(NC(=O)c2cc(F)c(F)cc2Cl)c1 | inconclusive [inhibitor, single point] | 
CCOCCCn1c(=O)c(NC(=O)c2ccc(OCC)cc2)c2n(c1=S)CCCCC2 | inactive | 
CNc1oc(-c2cccs2)nc1C#N | inconclusive [activator, partial curve] | 
Cn1c(N)c(S(=O)(=O)c2ccc(Br)cc2)c2nc3ccccc3nc21 | inconclusive [activator, partial curve] | 
COc1ccccc1OCCCc1c(C)n[nH]c1C | inconclusive [inhibitor, full curve, poor fit] | 
CCOCCCNS(=O)(=O)c1ccc(Br)cc1 | inconclusive [inhibitor, full curve] | 
CC(/C=C/c1ccccc1)=N\NC(N)=S | inconclusive [inhibitor, single point] | 
CCOC(=O)c1c(NC(=O)Cn2nc(C(F)F)cc2C(F)F)sc(C)c1C | inconclusive [inhibitor, single point] | 
COc1ccc2nc(NC(=O)CCc3ccc(OC)c(OC)c3)sc2c1 | inconclusive [inhibitor, full curve, poor fit] | 
O=C1C2=C(c3ccccc31)[N+](=O)C1CCCCC1N2[O-] (stereo unspecified) | inactive | 
Cc1cc(/C=C(/C#N)c2nc3ccccc3[nH]2)c(C)n1-c1cccc([N+](=O)[O-])c1 |  | inconclusive: -15.7% [inhibitor]
O=C(NNc1c2ccccc2nc2ccccc12)c1ccccc1O | inactive | 
N#Cc1nc(-c2cccc3ccccc23)oc1NCCN1CCCCC1 | inconclusive [activator, partial curve] | 
COc1ccc(CNC(=O)C(CCSC)NS(=O)(=O)c2ccccc2F)cc1 (stereo unspecified) | inconclusive [inhibitor, single point] | 
O=C(Nc1cccc(-c2cn3cccnc3n2)c1)c1ccc(Br)o1 | inconclusive [activator, partial curve] | 
O=C1c2ccccc2C2(c3ccc(F)cc3)NCCN12 (stereo unspecified) |  | inconclusive: 16.9% [activator]

SMILES | Potency | activity change, negative = inhibition
COc1cccc(-c2nnc(SCC(=O)OC(C)C)n2N)c1 | inconclusive [activator, single point] | 
COc1ccc(NC(=S)N2C3CCC2CC(NC(=O)NC24CC5CC(CC(C5)C2)C4)C3)c(OC)c1 (stereo unspecified) | inconclusive [inhibitor, single point] | 
COc1ccc(-c2nn(-c3ccccc3)cc2/C=N/Nc2ccccn2)cc1OC | inconclusive [inhibitor, single point] | 
CCc1n[nH]c(=S)n1/N=C/c1c[nH]c2ccc(Br)cc12 |  | inconclusive: 17.9% [activator]
COC(=O)CNC(=O)C(NC(=O)c1ccc(Cl)cc1)C(C)C (stereo unspecified) |  | inconclusive: -18.5% [inhibitor]
COCCCNC(=S)N1CCCN(c2nc3cc(C)c(C)cc3cc2C#N)CC1 | inconclusive [activator, partial curve] | 
O=C(c1ccc(Oc2ccc(C(F)(F)F)cn2)cc1)N1CCN(c2ccccc2)CC1 | inconclusive [inhibitor, single point] | 
CCOc1ccccc1C(=O)Nc1nnc(CC)s1 | inconclusive [inhibitor, full curve] | 
O=C(CSc1nnc(C2CC2)n1Cc1ccccc1)N1CCN(S(=O)(=O)c2ccccc2)CC1 | inconclusive [inhibitor, partial curve] | 
Nc1cc(Cl)ccc1C(=O)OCC(=O)NC1CCS(=O)(=O)C1 (stereo unspecified) | inconclusive [activator, single point] | 
CC(=O)Nc1ccc(S(=O)(=O)N2CCN(C(=O)c3ccccc3F)CC2)cc1 | inconclusive [inhibitor, single point] | 
O=C1CN(C(=O)COC(=O)c2ccccc2NCc2ccco2)c2ccccc2N1 | inconclusive [activator, partial curve, poor fit] | 
CCOC(=O)c1c(C)n(-c2ccc(C)cc2)c2ccc(OCC(O)CNCC3CCCO3)cc12 (stereo unspecified) |  | inconclusive: -15.9% [inhibitor]
Cc1cccc(N(CC(=O)NC(C)(C)C)C(=O)CS(=O)CC(=O)Nc2ccc3c(c2)OCO3)c1 (stereo unspecified) |  | inconclusive: 16.1% [activator]
Cc1ccc2nc(SCC(=O)Nc3nonc3N)[nH]c2c1 |  | inconclusive: 20.5% [activator]
CC(C)CCn1c(=O)c2ccccc2n2c(CN3C(=O)NC4(CCC(C)CC4)C3=O)nnc12 (stereo unspecified) | inconclusive [inhibitor, single point] | 
Clc1ccccc1OCCn1cnc2ccccc21 | inconclusive [inhibitor, single point] | 
Cc1ccc(NC(=O)N2CCN(S(=O)(=O)c3ccccc3)CC2)cc1 | inconclusive [inhibitor, full curve, poor fit] | 
Cc1ccc2oc3c(c(=O)c2c1)C(c1cccs1)N(CCCN(C)C)C3=O (stereo unspecified) | inconclusive [inhibitor, single point] | 
O=C(N/N=C/c1ccc(Cl)cc1Cl)C1CCN(c2ncc(C(F)(F)F)cc2Cl)CC1 |  | inconclusive: 8.63% [activator]
